Measurements as given in the supplement of paper PMC4166925.
± gives the standard deviation of the averaged measurements. The full ranking holds about 33,000 sequences; the median of “E-score (dimensionless, -0.5 to 0.5)” is about -0.046, and the highest 2% start at about 0.36. The list shows a part of the results.

The sequences below were run on T1, SpTbr T-box DNA-binding domain (GST fusion) (assay: PBM E-score of 8-mer (E-score (dimensionless, -0.5 to 0.5)); Tbr is Tbrain of the sea star Patiria miniata (Pm) or the sea urchin Strongylocentrotus purpuratus (Sp); higher = stronger binding preference; most listed sequences are background and not binding sites). Conditions: the construct has about 5 more residues each side.
T1 sequence: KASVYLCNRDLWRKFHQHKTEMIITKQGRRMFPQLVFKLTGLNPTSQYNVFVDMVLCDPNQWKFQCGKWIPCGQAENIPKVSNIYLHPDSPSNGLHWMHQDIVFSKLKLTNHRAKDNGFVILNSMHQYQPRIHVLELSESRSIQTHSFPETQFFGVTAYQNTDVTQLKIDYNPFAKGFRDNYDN
How it was run: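 Primer extension turned Universal Agilent oligonucleotide arrays double-stranded. They were incubated with 200 nM protein in PBS (pH 7.5); the protein was a GST-fused Tbr T-box DNA-binding domain expressed in BL21 E. coli at 20 °C and purified on glutathione. Every ungapped 8-mer was scored from the scanned, quantified probe intensities, and the Universal PBM Analysis Suite gave each an enrichment E-score averaged over duplicate arrays.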

Sequence	PBM E-score of 8-mer
GCCCTTTA	-0.275 ± 0.063
AATAAGCT	-0.0698 ± 0.032
ACCACCAT	0.108 ± 0.082
GATTTAAA	-0.0862 ± 0.033
CGTCTTGC	-0.0802 ± 0.039
AGAATCCG	-0.035 ± 0.078
AATCTTCT	-0.185 ± 0.089
TCGGGAGA	-0.0812 ± 0.019
CTGTCTTA	-0.141 ± 0.05
AGACACGG	0.0261 ± 0.016
CGACTAGC	0.261 ± 0.0043
ATGCCCCA	-0.228 ± 0.02
CAAGGAGG	-0.154 ± 0.027
AGCCGAGA	0.0289 ± 0.0091
GGCACCCC	0.22 ± 0.003
CTGTGACA	0.31 ± 0.011
ATAGACGC	0.0267 ± 0.032
ATCAGGAA	-0.0873 ± 0.02
CCGCTGCA	0.0158 ± 0.029
CTGCGAAG	0.2479 ± 0.0022
AACAGAGC	0.00334 ± 0.047
AACATCTG	-0.0309 ± 0.00087
CAACAACC	0.0912 ± 0.017
CTAAGTTA	-0.13 ± 0.13
AAGATCAT	-0.117 ± 0.044

Sequence	PBM E-score of 8-mer
CCTCTGAC	-0.0787 ± 0.017
CGAGCCAC	0.0407 ± 0.0043
TCCTCAGA	-0.0505 ± 0.044
CGCGCAAG	0.205 ± 0.018
ACATTTTG	0.0222 ± 0.062
CCGAATAA	-0.0137 ± 0.0092
CCACAAAG	-0.104 ± 0.047
ACCCACAT	0.19 ± 0.023
GTACGCTA	-0.136 ± 0.0079
ACAGAAGA	-0.244 ± 0.027
ACGGTGTG	0.3578 ± 0.0014
AACACGCA	0.21 ± 0.022
CGTCTCCC	-0.168 ± 0.07
AGACTTGA	-0.0714 ± 0.084
GCATGCGC	-0.0608 ± 0.0047
AGTACAAT	-0.107 ± 0.0088
TGTTGGAA	0.102 ± 0.079
CATGCCCC	-0.219 ± 0.047
GGCTCAAC	-0.283 ± 0.031
CCGAAATC	-0.048 ± 0.0049
CGTCTTAC	-0.194 ± 0.001
CCCTTACG	-0.0777 ± 0.068
TGTGCAAA	0.225 ± 0.033
CATATCTA	-0.24 ± 0.025
AGCGGGTA	0.0636 ± 0.022

Sequence	PBM E-score of 8-mer
GCAGAGGC	-0.259 ± 0.011
AAATAACG	0.138 ± 0.08
ATCGCCTG	0.158 ± 0.087
CGGGCGAG	-0.221 ± 0.018
AGACGCAA	-0.228 ± 0.024
GGGCAGAA	0.143 ± 0.024
CACTTTAG	0.194 ± 0.097
ATTGAGAC	-0.00788 ± 0.012
GGATGTAA	-0.206 ± 0.025
GGATTCTA	-0.213 ± 0.02
CTCGTAGC	-0.0266 ± 0.074
ATCTGTTC	-0.0784 ± 0.067
AGCAGATC	-0.117 ± 0.006
ATATTTGC	-0.0908 ± 0.0053
ATCGCAGG	0.141 ± 0.035
GAGCGTGC	0.0903 ± 0.076
GCCAGCAC	0.18 ± 0.0012
TCCGGAAA	-0.129 ± 0.0036
CGCACCCG	0.267 ± 0.054
TCGACGAA	0.0793 ± 0.013
GTTAGGAA	-0.0675 ± 0.11
ATGCCCGC	0.031 ± 0.012
CACATGAG	0.186 ± 0.0081
CAACTACC	-0.0272 ± 0.00088
CGAGCGCA	-0.125 ± 0.023

Sequence	PBM E-score of 8-mer
TAGACGCA	-0.139 ± 0.0035
ACTTAAAC	0.0599 ± 0.034
AGCGAGGA	0.0536 ± 0.0095
CATGAAAG	0.0519 ± 0.074
CATACGGA	-0.0654 ± 0.014
CCGGGCGC	0.0707 ± 0.022
AGGGCAAA	-0.301 ± 0.014
GCGCAAAC	0.214 ± 0.016
GCTGCAAC	-0.0405 ± 0.016
ATGTGTTC	0.111 ± 0.064
CCGGGCGA	0.00091 ± 0.0019
ATGACACG	0.315 ± 0.035
AAACCGAG	-0.0868 ± 0.053
AGCGTCGC	0.151 ± 0.044
AGGACGGA	-0.361 ± 0.018
GCATAATA	-0.264 ± 0.0092
AAGCAGGG	0.0283 ± 0.034
ACAATTTG	0.118 ± 0.072
GGTGGGGA	0.248 ± 0.033
AAACTGTA	-0.0341 ± 0.0062
AGTGTAAT	0.205 ± 0.042
CACTAAAC	0.16 ± 0.026
AAACGGCG	0.0915 ± 0.052
CTGTCCAC	0.0238 ± 0.083
AAATATAA	-0.0489 ± 0.051

Sequence	PBM E-score of 8-mer
CCACGAGG	0.121 ± 0.011
ACTACAGC	-0.0746 ± 0.044
CGTTGCCA	0.2464 ± 0.0017
GGGCTGAA	-0.207 ± 0.016
ATCGATTC	0.0381 ± 0.02
AGAGATAA	-0.0988 ± 0.061
CACACACG	0.233 ± 0.057
ATCGGCTG	0.0647 ± 0.039
CGTGGACC	-0.0726 ± 0.011
AGTTTTTC	-0.127 ± 0.0073
AACGCAGA	-0.146 ± 0.035
GTGTCCCA	0.00535 ± 0.026
GGAGGCAA	-0.235 ± 0.025
CAGCGAAC	0.0905 ± 0.021
AGGTCGAG	-0.0467 ± 0.015
GCGCAATA	0.0149 ± 0.02
ATCAGGGG	-0.0758 ± 0.012
GGCACATA	0.212 ± 0.0026
AGAAGGGC	-0.0801 ± 0.11
CGGGCACG	-0.236 ± 0.084
AACCTTCT	-0.0476 ± 0.056
GTAATATA	-0.108 ± 0.1
ACGTCGCA	0.106 ± 0.065
ACTGGGCA	-0.191 ± 0.021
GTATGCTA	-0.00407 ± 0.024

Sequence	PBM E-score of 8-mer
CCGCTAGG	-0.0592 ± 0.011
CACCACAA	0.182 ± 0.034
GTAAGAAC	-0.0394 ± 0.088
CTCGTAAC	-0.000405 ± 0.085
AATTTCAA	-0.2005 ± 0.0015
ACAAACCT	-0.229 ± 0.026
CCATCAGG	0.0038 ± 0.024
ATATAAGG	-0.108 ± 0.013
TATCACGA	0.153 ± 0.015
CGGACACC	0.228 ± 0.046
AGCGGAGC	-0.239 ± 0.034
GTCCGACA	0.0199 ± 0.043
GGGCGTTA	0.2697 ± 0.0022
TAGTCTGA	-0.132 ± 0.037
ATGATTTA	-0.072 ± 0.048
ACACCGAC	0.292 ± 0.0031
GGCAAATA	-0.125 ± 0.017
CATCGGGA	-0.148 ± 0.02
CAGGAGGG	-0.0635 ± 0.11
GTCCCATA	-0.139 ± 0.074
CCGCCGCA	-0.0972 ± 0.026
CTCTCATC	-0.0524 ± 0.04
CCCGGATA	-0.107 ± 0.029
CGTCCACA	0.148 ± 0.059
CGGATCAA	0.105 ± 0.079

Sequence	PBM E-score of 8-mer
CATAATTA	-0.332 ± 0.027
CTCCGAGC	-0.2244 ± 0.0021
AAGATGTA	-0.116 ± 0.0028
ACGGGTTC	0.15 ± 0.018
ACCCTAAT	-0.00936 ± 0.024
GGCTCTAC	0.0106 ± 0.024
TAAGACAA	-0.0499 ± 0.041
GCAACCAA	-0.19 ± 0.01
CTTCCCAC	0.253 ± 0.032
GGAACACC	0.223 ± 0.035
AGAACTAA	-0.136 ± 0.018
ATCGACGG	-0.00276 ± 0.012
GACCCTCC	-0.111 ± 0.013
TCAACGCA	0.12 ± 0.0066
GACGGTGA	-0.109 ± 0.032
CGTAGAGC	-0.325 ± 0.035
CCATTCGA	-0.14 ± 0.034
GACGTGGA	-0.193 ± 0.081
AAGTAGCC	-0.123 ± 0.0025
AGAGAGAC	-0.14 ± 0.036
GCGAATTA	0.134 ± 0.069
ACAATTGG	0.116 ± 0.035
